Assay results: PubChem BioAssay AID504706 (National Center for Advancing Translational Sciences (NCATS), 2011)
In all, about 320,000 compounds went through this assay and about 200 (0.062%) were called active. The inconclusive results got no clear call from the source; some entries with a clear call stand among them for comparison. Calls come from the whole dose curve; as a rule, active = well fitted activation curve with a large enough effect; inconclusive = small, poorly fitted or top-dose-only effect; inactive = no such curve, though single readings can be large or run the other way. No potency is given beside an inconclusive call; the fits are too rough.

Assay: qHTS assay for re-activators of p53 using a Luc reporter; note: nearly all actives have a fitted effect of over 45% in size
Settings: H1299 p53-A138V BP100-luciferase reporter, luminescence, 24 h; series mostly up to 92.2 µM
Outline: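 p53-null H1299 cells stably carrying temperature-sensitive p53-A138V and a BP100-luciferase reporter were pinned with compounds (4-point, 1:5 series) and held 24 hrs at 37 deg C. Luminescence was read 10 min after detection reagent.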
Potency is the fitted concentration of half-maximal effect; tags give direction and shape of the fitted curve.

| SMILES | Potency |
| --- | --- |
| O=C(NCC1CCCO1)c1cc2c(s1)CCC2 (stereo unspecified) | inactive |
| CCn1c(SC(C)C(=O)NC2CCCC2)nc2cc(S(N)(=O)=O)ccc21 (stereo unspecified) | inactive |
| CC(=O)N1N=C(c2ccncc2)CC1c1ccccc1O (stereo unspecified) | inactive |
| Cn1c(=O)cc(OCC(=O)NCc2cccs2)c2ccccc21 | inconclusive [activator, single point] |
| O=C(NCCCN1CCOCC1)c1cc(-c2ccccc2F)no1 | inconclusive [activator, partial curve, poor fit] |
| FC(F)Oc1ccc(C2N=C(c3ccccc3)NO2)cc1 (stereo unspecified) | inconclusive [activator, partial curve, poor fit] |
| O=C1c2ccc(Oc3ccc([N+](=O)[O-])cc3)cc2C(=O)N1CCCO | inactive |
| O=S(=O)(/N=C(/Nc1nc2ccccc2s1)c1ccccc1)c1ccccc1 | inconclusive [activator, partial curve, poor fit] |
| Cc1cccn2c(=O)c3cc(C(=O)NCCN4CCOCC4)n(C)c3nc12 | inconclusive [activator, partial curve, poor fit] |
| CCn1cnc2cc(NCc3ccc(Br)cc3)ccc21 | inconclusive [activator, full curve, poor fit] |
| CC(C)(C)n1ncc2c(=O)n(CC(=O)NCc3ccccc3)cnc21 | inconclusive [activator, full curve, poor fit] |
| CCc1ccc(CCC(=O)Nc2ccc(S(N)(=O)=O)cc2)o1 | inconclusive [activator, full curve, poor fit] |
| CCN(CC)C(=O)c1sc2nc(-c3ccc(OC)cc3)cn2c1C | inconclusive [activator, partial curve, poor fit] |
| O=C(CSC1=NCCS1)N1CCN(c2ccccc2)CC1 | active: 35.5 µM |
| O=C(Nc1cccc(F)c1)N1CCC(c2ccccc2)CC1 | inconclusive [activator, partial curve, poor fit] |
| Brc1cccc(-c2nc(-c3ccncc3)no2)c1 | inconclusive [activator, partial curve, poor fit] |
| COc1cc(C(=O)N[C@@H](Cc2c[nH]c3ccccc23)C(=O)O)cc(OC)c1OC | inconclusive [activator, partial curve, poor fit] |
| COc1cc(NC(=O)c2cc3nc(C)cc(C)n3n2)c(OC)cc1Cl | inconclusive [activator, partial curve, poor fit] |
| CC1(C(=O)NCCN2CCOCC2)C=CC2(CCCCC2)N1C(=O)c1ccccc1 (stereo unspecified) | inconclusive [activator, single point] |
| CC(C)(C)OC(=O)NCCCCCNC(=O)c1[nH]cnc1C(=O)Nc1ccc(Cl)cc1 | inactive |
| Nc1ccc2nc(-c3cccc(-c4nc5ccc(N)cc5[nH]4)n3)[nH]c2c1 | inactive |
| COc1cccc(/C=N/Nc2ncnc3c2ncn3Cc2ccccc2)c1O | inconclusive [activator, full curve, poor fit] |
| CCN(CC)c1ccc(/C=N/NC(=O)CCC(=O)NCc2ccccc2)c(O)c1 | inconclusive [activator, partial curve, poor fit] |
| O=C(NCCc1cccs1)c1cccs1 | inconclusive [activator, partial curve, poor fit] |

| SMILES | Potency |
| --- | --- |
| Cc1ccc(Nc2nc(C)cs2)cc1 | inactive |
| CCOC(=O)CCn1nc(-c2ccccc2)cc1N | inconclusive [activator, full curve, poor fit] |
| CN1C(=O)c2cccc3c(N(C)C)ccc(c23)C1=O | inconclusive [activator, single point] |
| CC(C)(C)C(=O)Nc1ccc2oc(-c3cc(F)c(F)cc3Cl)nc2c1 | inconclusive [activator, full curve, poor fit] |
| O=C(COc1ncnc2ccccc12)Nc1ccc(S(=O)(=O)N2CCOCC2)cc1 | inactive |
| Cc1cccc(NC(=O)C2CCC(CNC(=O)[C@@H]3Cc4ccccc4CN3)CC2)c1 (stereo partly specified) | inconclusive [activator, single point] |
| Cc1cnc(C(=O)NCCc2ccc(Cl)cc2)cn1 | inconclusive [activator, single point] |
| Clc1cccc(-c2nc(-c3ccc(-c4nn[nH]n4)cc3)no2)c1 | inconclusive [activator, partial curve, poor fit] |
| O=C(CC(SCCO)c1ccc2c(c1)OCO2)c1ccco1 (stereo unspecified) | inconclusive [activator, partial curve, poor fit] |
| COc1ccc(COc2ccsc2C(=O)Nc2ccc(Cl)cc2)cc1 | inconclusive [activator, single point] |
| O=C(CC1C(=O)NCCN1C(=O)c1ccc(Cl)cc1)Nc1ccc(F)cc1 (stereo unspecified) | inactive |
| COc1ccc2c(c1)O/C(=C\c1sccc1C)C2=O | inconclusive [activator, full curve, poor fit] |
| Cc1ccnc(NC(=O)/C=C/c2ccccc2Cl)c1 | inconclusive [activator, full curve, poor fit] |
| Cc1cc(-c2ccccc2C(=O)O)on1 | inactive |
| O=C(NCCC1=CCCCC1)c1ccc(Br)o1 | inconclusive [activator, partial curve, poor fit] |
| CSC1=NC(=O)/C(=C/c2ccc(SC)cc2)S1 | inconclusive [activator, partial curve] |
| COc1ccccc1-c1cc(SC)c(C#N)c(=O)o1 | inactive |
| CC(C)Oc1cccc(C(=O)Nc2ncn[nH]2)c1 | inconclusive [activator, partial curve, poor fit] |
| O=C(Nc1ccccc1F)C1C2C=CC3(O2)C1C(=O)N(c1cccnc1)C3C(=O)NC1CCCCC1 (stereo unspecified) | inconclusive [activator, partial curve, poor fit] |
| O=C(c1cc(-c2ccc(O)cc2)on1)N1CCCc2ccccc21 | inconclusive [activator, partial curve, poor fit] |
| COC(=O)c1ccccc1NC(=O)c1ccc2nccnc2c1 | inactive |
| C/C(=N\NC(=O)C1(C)CC1(Br)Br)c1cccc(NC(=O)C2CCC2)c1 (stereo unspecified) | inactive |
| O=C(NC(=S)Nc1cccnc1)c1cc2ccccc2o1 | inconclusive [activator, partial curve, poor fit] |
| CC1CCN(c2nc3ccccn3c(=O)c2C=O)CC1 | inactive |

| SMILES | Potency |
| --- | --- |
| O=S(=O)(Nc1ccc2nc(-c3ccco3)[nH]c2c1)c1ccccc1 | inconclusive [activator, partial curve, poor fit] |
| S=c1[nH]ncn1/N=C/c1ccc(N2CCOCC2)cc1 | inconclusive [activator, full curve] |
| CCCc1nc2nc(C)c(NS(=O)(=O)c3ccc(Cl)cc3)c(=O)n2[nH]1 | inactive |
| Cc1cc(C)c2c(N=NN3CCCCC3)[nH]nc2n1 | inconclusive [activator, full curve, poor fit] |
| COc1cc(/C=C2/C(=O)ON=C2C)ccc1OCc1ccccc1F | inconclusive [activator, partial curve, poor fit] |
| N/C(=N\c1nc2ccccc2o1)NC(=O)/C=C/c1ccccc1 | inactive |
| Cc1cc(C)nc(Sc2ncnc(N)c2[N+](=O)[O-])n1 | inactive |
| O=C(CCCCn1c(=O)c2ccccc2n(Cc2ccc(F)cc2)c1=O)NCc1ccco1 | inactive |
| Cc1ccnc(NC(=O)CCCc2ccccc2)c1 | inconclusive [activator, partial curve, poor fit] |
| CCOc1ccc(NCc2nc3ccccc3n2CCOc2ccccc2)cc1 | inconclusive [activator, partial curve] |
| Cc1ccccc1N(CC(=O)NCCSCc1ccccc1)S(C)(=O)=O | inconclusive [activator, single point] |
| O=C(Nc1ccccc1OC(=O)c1ccc(Cl)cc1)c1ccc(Cl)cc1 | inconclusive [activator, full curve, poor fit] |
| Cc1csc(NC(=O)c2ccc3ccccc3n2)n1 | inconclusive [activator, partial curve, poor fit] |
| Cc1ccc(-c2nc3cnccn3c2Nc2c(C)cccc2C)o1 | inactive |
| CCN(CC(=O)NCCc1ccc(Cl)cc1)Cc1nc2ccccc2c(=O)[nH]1 | inactive |
| CCCN(Cc1ccccc1)C(=S)Nc1ccc(C(C)=O)cc1 | inactive |
| COC(=O)c1ccc(CNC(=O)C2CCC(=O)N(CCc3ccccc3)C2)cc1 (stereo unspecified) | inactive |
| COC(C(=O)Nc1ccnn1C1CCN(Cc2cnn(C)c2)CC1)c1ccccc1 (stereo unspecified) | inconclusive [activator, single point] |
| COc1ccc(C(=O)CC(=O)C(=O)Nc2cccc(F)c2)cc1 | inactive |
| CCCSc1ccc2nc(NC(=O)OC)[nH]c2c1 | inactive |
| Cc1cc2oc(=O)cc(CN3CCCc4ccccc43)c2cc1C | inconclusive [activator, partial curve, poor fit] |
| CN(c1ccc(C(=O)Nc2ccc3c(c2)OCO3)cc1)S(C)(=O)=O | inactive |
| Cc1nn(-c2ccc(Cl)cc2)c2[nH]c(=O)c(CNCc3ccc4c(c3)OCO4)cc12 | inconclusive [activator, partial curve, poor fit] |
